These results are taken from paper PMC7791157 (Cell Research, 2021).

This assay addresses T1, FLAG-tagged SARS-CoV-2 S (SARS-CoV-2).
T1 construct: also called S glycoprotein
In words: pull-down. The settings on record: both partners purified.

B1: His-tagged AXL ([…]) (domain or fragment)
chain: not shown
notes: also called recombinant His-tagged AXL; His-AXL
For B1, the binding result is “binds”.
